Data on 44 compounds can be found in PMC4336329 (PLoS ONE, 2015).

About 2,200 (0.71%) of roughly 310,000 compounds showed an effect of 50% or more. The effect is printed as a negative number. This is one part of the list.

For the assay, the target named is human ether-à-go-go-related gene (hERG) potassium channel (human, UniProt Q12809). As to the kind of experiment: primary screen, population patch clamp on CHO cells stably expressing hERG.
Chain of human ether-à-go-go-related gene (hERG) potassium channel (Q12809 whole entry, looked up): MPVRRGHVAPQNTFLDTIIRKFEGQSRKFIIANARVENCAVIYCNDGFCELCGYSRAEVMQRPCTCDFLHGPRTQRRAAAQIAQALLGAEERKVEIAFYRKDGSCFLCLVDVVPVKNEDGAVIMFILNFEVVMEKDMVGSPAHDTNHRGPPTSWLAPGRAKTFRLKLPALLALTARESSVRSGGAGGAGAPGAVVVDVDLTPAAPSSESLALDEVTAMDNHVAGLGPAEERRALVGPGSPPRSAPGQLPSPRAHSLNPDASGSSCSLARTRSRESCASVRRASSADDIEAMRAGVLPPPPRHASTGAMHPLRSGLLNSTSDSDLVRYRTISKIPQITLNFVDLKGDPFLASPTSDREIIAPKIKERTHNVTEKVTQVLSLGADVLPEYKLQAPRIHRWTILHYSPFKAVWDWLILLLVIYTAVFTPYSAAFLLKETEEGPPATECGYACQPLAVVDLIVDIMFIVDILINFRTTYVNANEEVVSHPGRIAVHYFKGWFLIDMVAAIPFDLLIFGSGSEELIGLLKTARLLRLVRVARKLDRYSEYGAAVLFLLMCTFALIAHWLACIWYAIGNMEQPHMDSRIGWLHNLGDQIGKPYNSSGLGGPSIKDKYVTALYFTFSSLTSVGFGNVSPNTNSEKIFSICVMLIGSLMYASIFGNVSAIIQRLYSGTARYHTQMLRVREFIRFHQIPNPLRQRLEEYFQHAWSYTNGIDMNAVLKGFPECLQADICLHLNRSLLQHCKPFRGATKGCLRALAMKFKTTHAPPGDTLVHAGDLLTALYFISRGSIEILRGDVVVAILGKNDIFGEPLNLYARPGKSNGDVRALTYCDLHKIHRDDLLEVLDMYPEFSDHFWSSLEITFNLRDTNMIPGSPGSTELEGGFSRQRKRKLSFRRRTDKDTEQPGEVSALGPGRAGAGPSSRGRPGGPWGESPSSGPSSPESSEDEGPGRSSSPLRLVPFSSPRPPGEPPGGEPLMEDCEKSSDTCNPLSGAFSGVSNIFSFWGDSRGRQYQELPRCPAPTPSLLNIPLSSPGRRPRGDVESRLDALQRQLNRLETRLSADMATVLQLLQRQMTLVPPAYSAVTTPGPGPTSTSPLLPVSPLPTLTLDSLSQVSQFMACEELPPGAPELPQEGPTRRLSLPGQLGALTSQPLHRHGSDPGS
Take `Cc1ccc(OCc2ccc(C(=O)Nc3nc4ccccc4n3Cc3ccccc3)o2)c([N+](=O)[O-])c1`: the “hERG current change (%, negative = inhibition) at 1uM” value is 11.7%.

Take `CS(=O)(=O)N1N=C(c2ccco2)CC1c1ccc(Br)cc1` (centres unmarked): the “hERG current change (%, negative = inhibition) at 1uM” value was -0.59%.

Turning to `Cc1cc(C)nc(NS(=O)(=O)c2ccc(NC(=O)Nc3ccccc3F)cc2)n1`, the “hERG current change (%, negative = inhibition) at 1uM” value is reported as 7.57%.

As to `CC(C)(CO)CNC1CCCN(C2Cc3ccccc3C2)C1` (centres unmarked), the “hERG current change (%, negative = inhibition) at 1uM” value is on record as 11.7%.

In the case of `CCOc1cc(NC(=S)NCC2CCCO2)c(OCC)cc1NC(=O)CC(C)C` (centres unmarked), the “hERG current change (%, negative = inhibition) at 1uM” value is 7.85%.

As to `COC(=O)[C@@H]1C[C@]2(Br)c3ccccc3N(S(=O)(=O)c3ccccc3)[C@@H]2N1C(=O)OC`, the “hERG current change (%, negative = inhibition) at 1uM” value is 10.3%.

Take `CCOC(=O)c1c(C)[nH]c(C)c1C(=O)COC(=O)c1ccc(S(=O)(=O)C(F)F)cc1`: the “hERG current change (%, negative = inhibition) at 1uM” value was 10.1%.

Turning to `O=C(Nc1nccs1)C1CCN(S(=O)(=O)c2ccc(F)cc2)CC1`, the “hERG current change (%, negative = inhibition) at 1uM” value was 10.7%.

On to `CSC(=Nc1ccccc1)Nc1ccccc1`, for which the “hERG current change (%, negative = inhibition) at 1uM” value was found to be 11.2%.

For the compound `CC(=O)c1c(OCC(=O)O)ccc2c(C)cc(=O)oc12`, the “hERG current change (%, negative = inhibition) at 1uM” value is given as -5.47%.

Take `CN(C)CCNC(=O)Cc1ccc([N+](=O)[O-])cc1`: the “hERG current change (%, negative = inhibition) at 1uM” value was found to be 11%.

Regarding `Cc1cc(=O)[nH]c(Nc2cccc(F)c2)n1`, the “hERG current change (%, negative = inhibition) at 1uM” value amounted to 9.97%.

As to `O=C1c2ccccc2NC(c2ccc(-c3cccc(F)c3)o2)N1O` (centres unmarked), the “hERG current change (%, negative = inhibition) at 1uM” value is on record as 1.85%.

`CCC(C)(C)NC(=O)C(c1cccnc1)N(C(=O)c1csnn1)c1ccccc1` (centres unmarked): the “hERG current change (%, negative = inhibition) at 1uM” value is listed as 1.46%.

As to `Cn1cc(C(=O)N/N=C/c2cccc([N+](=O)[O-])c2)c2ccccc21`, the “hERG current change (%, negative = inhibition) at 1uM” value is recorded as 11.2%.

On to `O=C(O)CCCC(=O)Nc1ccccc1-n1ccnc1`, for which the “hERG current change (%, negative = inhibition) at 1uM” value came out at 10.3%.

Regarding `Cc1ccc(-n2c(C)nnc2SCC(=O)N2CCc3ccccc3C2)cc1`, the “hERG current change (%, negative = inhibition) at 1uM” value is -19.6%.

In the case of `O=C(CCSCc1ccccc1Cl)NCc1cccs1`, the “hERG current change (%, negative = inhibition) at 1uM” value is given as 9.73%.

`Nc1ccncc1N`: the “hERG current change (%, negative = inhibition) at 1uM” value is 11%.

Turning to `CC(=O)Nc1ccc(S(=O)(=O)NNC(=O)c2ccc3c(c2)OCO3)cc1`, the “hERG current change (%, negative = inhibition) at 1uM” value is reported as 10.5%.

Turning to `CCOc1ccc(NC(=O)Cn2c(=O)oc3ccccc32)cc1`, the “hERG current change (%, negative = inhibition) at 1uM” value turned out to be 12.8%.

`COc1ccc(Cl)cc1-c1n[nH]c(=S)n1C`: the “hERG current change (%, negative = inhibition) at 1uM” value is -7.48%.

For the compound `Cc1cc(-c2nnc(SCC(=O)Nc3ccc(F)cc3)n2N)n[nH]1`, the “hERG current change (%, negative = inhibition) at 1uM” value came to 8.07%.

As to `O=C(O)C1CCCCC1C(=O)NCc1cn2ccccc2n1` (centres unmarked), the “hERG current change (%, negative = inhibition) at 1uM” value stood at 15.8%.

On to `c1cnc2c(C3NCCc4c3[nH]c3ccccc43)cccc2c1` (centres unmarked), for which the “hERG current change (%, negative = inhibition) at 1uM” value is given as -12.4%.

As to `CCOC(=O)C1CCCN(C(=O)Cn2cnc3sc(C)c(S(=O)(=O)N4CCOCC4)c3c2=O)C1` (centres unmarked), the “hERG current change (%, negative = inhibition) at 1uM” value is recorded as 15.1%.

Consider `CC1CC(C)CN(S(=O)(=O)c2ccc(NC(=O)CCNC(=O)c3ccc([N+](=O)[O-])cc3)cc2)C1` (centres unmarked), for which the “hERG current change (%, negative = inhibition) at 1uM” value was 3.64%.

`Cc1cccc(CCNC(=O)C2CCC(=O)N(Cc3ccccc3F)C2)n1` (centres unmarked): the “hERG current change (%, negative = inhibition) at 1uM” value stood at 13.5%.

Turning to `CC(CCc1ccccc1)NC(=O)CCC(=O)N1CCC(C(N)=O)CC1` (centres unmarked), the “hERG current change (%, negative = inhibition) at 1uM” value is 13.6%.

On to `COc1ccc(N2CCN(C(CNC(=O)c3ccco3)c3ccco3)CC2)cc1` (centres unmarked), for which the “hERG current change (%, negative = inhibition) at 1uM” value came out at 1.73%.

Turning to `Cc1noc(C(=O)Nc2ccc(F)c(Cl)c2)c1Cl`, the “hERG current change (%, negative = inhibition) at 1uM” value came to 14.6%.

Consider `CCCCNc1ncnc2c1cnn2-c1ccccc1`, for which the “hERG current change (%, negative = inhibition) at 1uM” value is reported as -4.95%.

Take `Cl.Oc1ccc(Nc2nc(N3CCCC3)c3ccccc3n2)cc1`: the “hERG current change (%, negative = inhibition) at 1uM” value is recorded as -62.7%.

On to `Cc1ccc(C(NC(=O)Nc2ccccn2)C(Cl)(Cl)Cl)cc1F` (centres unmarked), for which the “hERG current change (%, negative = inhibition) at 1uM” value is listed as 15.4%.

As for `Cc1cc(C(=O)COC(=O)c2ccncc2)c(C)n1Cc1ccco1`, the “hERG current change (%, negative = inhibition) at 1uM” value amounted to 12.5%.

Take `CC(=O)NC12CC3CC(C1)CC(C(=O)N1CCN(C(=O)c4ccco4)CC1)(C3)C2`: the “hERG current change (%, negative = inhibition) at 1uM” value is given as 7.16%.

Take `CCN(CC)CC(=O)Nc1cccc(S(=O)(=O)N2CCCC2)c1`: the “hERG current change (%, negative = inhibition) at 1uM” value is on record as 6.42%.

Regarding `COC(=O)CN1C(=S)N(c2ccc(OC)cc2)C(=O)/C1=C/c1ccc(N2CCOCC2)cc1`, the “hERG current change (%, negative = inhibition) at 1uM” value was 8.78%.

As for `Cc1sc2nnn(CC(=O)N3CCN(C(=O)c4ccco4)CC3)c(=O)c2c1C`, the “hERG current change (%, negative = inhibition) at 1uM” value is -5.92%.

`OC(CN(c1ccccc1)c1ccccc1)Cn1cnc2ccccc21` (centres unmarked): the “hERG current change (%, negative = inhibition) at 1uM” value is given as -12%.

For the compound `CCc1ccccc1N(C)S(=O)(=O)c1ccc2[nH]cc(C(=O)N3CCc4ccccc43)c(=O)c2c1`, the “hERG current change (%, negative = inhibition) at 1uM” value came to 12.8%.

With `CC1C2Cn3c(nc4ccccc43)C1N(C)O2` (centres unmarked), the “hERG current change (%, negative = inhibition) at 1uM” value is on record as 13.8%.

Turning to `COc1ccccc1C(=O)NC(=S)Nc1ccc(S(=O)(=O)N2CCN(C)CC2)cc1`, the “hERG current change (%, negative = inhibition) at 1uM” value was 3.49%.

Regarding `Cc1ccc(-c2nc(SCC(=O)c3c(N)n(C)c(=O)n(C)c3=O)n[nH]2)cc1`, the “hERG current change (%, negative = inhibition) at 1uM” value was -0.682%.
